In the supplement of paper PMC3334620:
Whole data set: some 33,000 sequences, median “E-score (-0.5 to 0.5)” near -0.011, cut for the highest 2% near 0.28. The list shows a part of the results.

What follows are sequences tested against T1, Gcr1 (UniProt P07261) (assay: PBM E-score (8-mer binding enrichment) (E-score (-0.5 to 0.5)); higher = stronger / more preferred TF binding; most listed sequences are background and not binding sites). Conditions: protein concentration: 100 nM; construct: GST-full length.
T1 sequence: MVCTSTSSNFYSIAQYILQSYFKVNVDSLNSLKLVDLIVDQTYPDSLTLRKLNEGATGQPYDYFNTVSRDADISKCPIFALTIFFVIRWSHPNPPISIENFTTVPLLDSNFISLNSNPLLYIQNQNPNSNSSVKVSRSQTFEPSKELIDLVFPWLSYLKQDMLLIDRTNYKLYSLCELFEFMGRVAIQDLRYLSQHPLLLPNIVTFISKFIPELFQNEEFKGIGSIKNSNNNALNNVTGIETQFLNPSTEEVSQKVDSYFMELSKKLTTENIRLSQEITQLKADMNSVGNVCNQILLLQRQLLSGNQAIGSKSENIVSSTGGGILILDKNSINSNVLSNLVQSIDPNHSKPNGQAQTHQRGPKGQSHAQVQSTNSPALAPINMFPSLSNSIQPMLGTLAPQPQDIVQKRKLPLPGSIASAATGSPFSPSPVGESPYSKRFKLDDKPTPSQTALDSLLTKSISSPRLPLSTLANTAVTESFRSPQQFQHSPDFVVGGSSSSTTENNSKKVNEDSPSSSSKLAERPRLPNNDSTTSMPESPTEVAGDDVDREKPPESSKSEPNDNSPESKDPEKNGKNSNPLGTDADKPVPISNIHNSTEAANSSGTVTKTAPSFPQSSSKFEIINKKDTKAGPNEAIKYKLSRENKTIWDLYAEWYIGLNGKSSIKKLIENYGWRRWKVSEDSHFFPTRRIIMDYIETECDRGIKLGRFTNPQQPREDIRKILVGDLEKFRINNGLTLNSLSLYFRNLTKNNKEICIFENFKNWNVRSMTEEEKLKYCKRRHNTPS
Description: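 Universal 'all 10-mer' protein binding microarrays (Agilent AMADID 015681) probed with GST-tagged S. cerevisiae TFs (full-length or DBD) made by in vitro transcription/translation (PURExpress), about 100-200 nM. Bound TF was detected with fluorescent anti-GST. Each ungapped 8-mer (which stands for itself and its reverse complement) is scored by the PBM enrichment score (E-score), a modified Wilcoxon-Mann-Whitney statistic from -0.5 to +0.5, computed with the Universal PBM Analysis Suite. Scale: above 0.35 generally sequence-specific binding.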

| Sequence | PBM E-score |
| --- | --- |
| GTAATATA | 0.161 |
| AACCTTCT | 0.147 |
| CGGGCACG | 0.107 |
| TATCACGA | 0.0314 |
| ATATAAGG | 0.0992 |
| CCATCAGG | -0.171 |
| ACAAACCT | -0.129 |
| AATTTCAA | 0.137 |
| GTAAGAAC | -0.0201 |
| CTCGTAAC | 0.123 |
| TAGACGCA | 0.263 |
| ACTTAAAC | -0.0348 |
| CAACTACC | 0.0316 |
| CGAGCGCA | -0.102 |
| CACATGAG | 0.0841 |
| ATGCCCGC | -0.193 |
| GTTAGGAA | 0.171 |
| TCCGGAAA | 0.172 |
| TCGACGAA | -0.18 |
| CGCACCCG | 0.0194 |
| GCCAGCAC | 0.0816 |
| ATGTGTTC | 0.0237 |
| GCGCAAAC | -0.0195 |
| GCTGCAAC | 0.13 |
| AGGGCAAA | -0.232 |

| Sequence | PBM E-score |
| --- | --- |
| CCGGGCGC | 0.229 |
| CATGAAAG | -0.00556 |
| CATACGGA | 0.0485 |
| AGCGAGGA | -0.0372 |
| CACTAAAC | 0.134 |
| AAACGGCG | 0.054 |
| AGTGTAAT | -0.00732 |
| ACAATTTG | -0.0159 |
| AAACTGTA | 0.136 |
| GGTGGGGA | 0.345 |
| GCATAATA | 0.155 |
| AGGACGGA | -0.118 |
| AAGCAGGG | 0.00962 |
| AAACCGAG | -0.291 |
| ATGACACG | -0.0887 |
| AGCGTCGC | -0.0102 |
| CCGGGCGA | -0.128 |
| ACTACAGC | -0.0966 |
| AAATATAA | 0.25 |
| CCACGAGG | 0.151 |
| CTGTCCAC | -0.0451 |
| TGTTGGAA | 0.217 |
| CATGCCCC | -0.183 |
| AGTACAAT | -0.121 |
| GCATGCGC | -0.233 |

| Sequence | PBM E-score |
| --- | --- |
| AGACTTGA | -0.0853 |
| CGTCTCCC | 0.0616 |
| AACACGCA | 0.248 |
| AGCGGGTA | 0.216 |
| TGTGCAAA | -0.0572 |
| CATATCTA | -0.037 |
| CCGAAATC | 0.116 |
| CGTCTTAC | -0.102 |
| CCCTTACG | -0.257 |
| GGCTCAAC | -0.0738 |
| ATCTGTTC | -0.123 |
| CTCGTAGC | -0.0915 |
| GGATTCTA | 0.151 |
| ATTGAGAC | 0.152 |
| CACTTTAG | 0.119 |
| GGATGTAA | 0.0119 |
| GGGCAGAA | -0.0553 |
| AGACGCAA | 0.153 |
| AAATAACG | 0.112 |
| GCAGAGGC | -0.0738 |
| CGGGCGAG | -0.165 |
| ATCGCCTG | -0.041 |
| GAGCGTGC | -0.1 |
| ATCGCAGG | -0.212 |
| AGCAGATC | -0.151 |

| Sequence | PBM E-score |
| --- | --- |
| ATATTTGC | -0.0121 |
| CAAGGAGG | 0.141 |
| ATGCCCCA | 0.0659 |
| CGACTAGC | -0.248 |
| AGACACGG | -0.0156 |
| CTGTCTTA | 0.0396 |
| AATCTTCT | 0.227 |
| AGAATCCG | 0.202 |
| TCGGGAGA | -0.129 |
| AACATCTG | 0.0139 |
| CTGCGAAG | -0.146 |
| AACAGAGC | -0.2 |
| ATAGACGC | 0.377 |
| CCGCTGCA | -0.012 |
| ATCAGGAA | 0.236 |
| CTGTGACA | 0.035 |
| AGCCGAGA | 0.0196 |
| GGCACCCC | 0.322 |
| CGCGCAAG | 0.045 |
| TCCTCAGA | -0.109 |
| CCTCTGAC | -0.0208 |
| CTAAGTTA | 0.00202 |
| AAGATCAT | -0.0156 |
| CGAGCCAC | -0.116 |
| CAACAACC | -0.0888 |

| Sequence | PBM E-score |
| --- | --- |
| ACGGTGTG | -0.27 |
| ACAGAAGA | 0.0874 |
| GTACGCTA | -0.0435 |
| CCACAAAG | 0.16 |
| CCGAATAA | 0.188 |
| ACCCACAT | 0.123 |
| ACATTTTG | -0.143 |
| ACCGCGAG | -0.181 |
| TTAGTAAA | 0.212 |
| GACTAGCC | -0.0549 |
| ATTGATGA | 0.0698 |
| CGGCCCAA | 0.023 |
| CGGAACCA | 0.114 |
| AAGTAGGC | 0.104 |
| AGATGCCG | 0.273 |
| AGGGGATG | 0.245 |
| ACGATGGA | -0.0284 |
| ACACTAGA | 0.0197 |
| CGGATATC | -0.125 |
| ATAGTCGA | -0.0555 |
| AGCATAGG | -0.208 |
| ACAACTAT | -0.0862 |
| CATCTTAC | 0.0945 |
| TCTATAAA | -0.0626 |
| CCCATGCA | -0.027 |

| Sequence | PBM E-score |
| --- | --- |
| CCCCAGTC | -0.0316 |
| CAGCAATA | 0.0248 |
| AAGCTAGG | 0.0368 |
| GCTATAGC | -0.0133 |
| GCCATTAC | -0.0129 |
| CAGGCCCC | 0.0973 |
| CCAATATA | 0.215 |
| CATTCCGG | 0.0685 |
| TTCACGAA | 0.0842 |
| ATGGCTTA | 0.0216 |
| ACCTATCG | 0.213 |
| TACTTTAA | 0.087 |
| ACAAGGGG | -0.0971 |
| AGGGCTTC | 0.339 |
| GGCCGATA | -0.0677 |
| ATCAAGAT | -0.00904 |
| CGTCTTGC | -0.0494 |
| GATTTAAA | -0.00595 |
| AATAAGCT | -0.017 |
| ACCACCAT | 0.0943 |
| GCCCTTTA | -0.0115 |
| GCTTGTTA | -0.157 |
| CGGAACGA | 0.0962 |
| GTCTAACA | 0.0607 |
| GTCTACGA | -0.1 |

| Sequence | PBM E-score |
| --- | --- |
| AGTTGTCC | -0.163 |
| ATTGAGTC | -0.161 |
| AAATTGCA | 0.0808 |
| CCCGGTTC | 0.0738 |
| CACGTTCA | -0.0908 |
| CATCTATC | -0.0245 |
| AGTAGGTG | -0.0321 |
| TCGGGACA | -0.0131 |
| GACCCTGA | 0.0473 |
| AAACCGCA | -0.0451 |
| TGCAGAAA | 0.164 |
| GCGCGATA | 0.14 |
| AGGACAAA | -0.0377 |
| ACGCTTCA | -0.0408 |
| ATCTTCAC | 0.136 |
| GATTCAGA | 0.0913 |
| CCCTACAG | -0.197 |
| AAACCCGT | -0.0538 |
| CCGGCTTA | -0.0254 |
| CTCTCCAG | -0.118 |
| GACCGCTC | -0.183 |
| ACGGTGTC | -0.168 |
| ACAGCGGC | 0.137 |
| CGATCTGA | -0.0839 |
| AGCTCCCC | -0.124 |

| Sequence | PBM E-score |
| --- | --- |
| ACATATGT | -0.13 |
| CGACTCGC | -0.123 |
| GATTAGTA | 0.0915 |
| AAGATATT | 0.125 |
| GTATGTTA | -0.0616 |
| AGAATCCA | 0.249 |
| ACCTCCGG | 0.0364 |
| GAGAATTA | 0.0982 |
| CCAACGAC | -0.0882 |
| ACCAGACC | -0.0312 |
| ATAACGAC | -0.0254 |
| GGGGAATA | -0.0429 |
| TAAAACAA | -0.0081 |
| GATTAATA | 0.154 |
| CGATAAAC | -0.269 |
| GTCTCAGA | -0.0978 |
| CGCTATAC | -0.182 |
| GCGTCAGC | -0.152 |
| GCTTGCCC | -0.164 |
| ATGTTTTG | -0.0384 |
| CAGTACGG | -0.115 |
| AGGCTACC | 0.0739 |
| CAAACGTA | -0.141 |
| ACTGACCT | -0.211 |
| CTCTATCA | -0.178 |

| Sequence | PBM E-score |
| --- | --- |
| GATTGGGC | -0.08 |
| GGAAAACA | -0.113 |
| GTACCGTA | 0.0724 |
| AGGGTTCA | -0.118 |
| GTTACACA | 0.0428 |
| CGTTACAG | 0.0257 |
| CCTGGTAC | 0.123 |
| AGTGGTCC | 0.0263 |
| GTAATGTA | -0.026 |
| CCAACAAG | 0.0404 |
| ATCGTTAA | -0.0428 |
| CTATTTTA | 0.209 |
| ACCCTGTA | 0.102 |
| CGTTGGCC | -0.23 |
| AAGGCTAG | -0.251 |
| CAGAGGGG | -0.233 |
| CTCTATTA | 0.154 |
| ATAATAGG | 0.237 |
| ATCATGTC | 0.0222 |
